Here are results for 49 compounds from PubChem BioAssay (NCI).

The structures appear in SMILES notation.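 Cultured in 96-well plates, cells were exposed to test compound for 48 hours across five concentrations. Abbreviation: GI50, concentration required for 50% inhibition of growth. TGI: concentration producing complete growth inhibition.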 Square brackets hold non-standard residues; d marks the D form. Peptide text beside a SMILES is read from it. * marks the point of attachment. Palmitoyl = CCCCCCCCCCCCCCCC(=O)*; Cbz = O=C(OCc1ccccc1)*; Aib = CC(C)(N)C(=O)O; OBn = c1ccc(CO*)cc1

The test system of this assay is NCI-H322M lung. Nature of the assay: inhibition of tumour cell growth, NCI panel, 48 h.
Turning to `CCOc1ccc(NC(=O)CC2SC(=Nc3ccc(C)cc3C)NC2=O)cc1` (stereo not given), the TGI was greater than 100 µM.
Take `COc1cc(/C=C2\CCCCC3=C2N=C2SC(C)=CN2C3c2cc(OC)c(OC)c(OC)c2)cc(OC)c1OC` (stereo not given): the GI50 is greater than 100 µM and the TGI was greater than 100 µM.
As for `COc1cc(O)c2c(=O)c(OC)c(-c3ccc(OC)c(O)c3)oc2c1`, the TGI is greater than 100 µM.
On the same count and under the same terms, under `COc1ccc(/C=N/NC(=O)c2ccc(O)c(CN(C)C)c2)cc1` stands greater than 100 µM; under `C=C(CN(C)C)C(=O)c1ccc(C(=O)C(=C)CN(C)C)cc1`, greater than 100 µM.
Same read-out and setting: the same measure for `CN1CC[C@]2(c3cccc(O)c3)CC(=O)/C(=C/c3ccccc3)[C@@H]1C2`: 22.3 µM; for `CCCCCCCCSC1=C(Cl)C(=O)C(OC)=C(OC)C1=O`: 45.8 µM; for `CC1=C(C(=O)Nc2ccccc2)C(c2ccc(Cl)c(Cl)c2)C(C(=O)Nc2ccccc2)=C(C)N1`: 39.2 µM.
Turning to `CC(C)(CO)CNc1nc(N)nc(Cl)c1/C=N/O`, the TGI is greater than 100 µM.
On the same count and under the same terms, the same measure for `Cc1cc2c(cc1C)[n+](=O)cc(C(=O)C/C(=N/NC(=S)NN)C(=O)Nc1cccc(C(F)(F)F)c1)n2[O-]`: greater than 100 µM; for `COc1ccc(NC(=O)CSc2nnc(-c3ccc(NC(C)=O)cc3)o2)cc1`: 30.2 µM.
For the compound `CNCCCNc1ccnc2cc(Cl)ccc12`, the GI50 is 19.5 µM and the TGI amounted to 62.7 µM.
Take `CC(C)Oc1cccc(N2C(=NCc3c[nH]c4ccccc34)Nc3ccncc3S2(=O)=O)c1`: the TGI was greater than 100 µM.
For the compound `NC(=O)c1cc(I)ccc1NC(=O)/C=C/c1ccccc1`, the GI50 was 0.952 µM and the TGI is greater than 100 µM.
On the same counts, the results for `COC(=O)C1=CN(CC2=CC(=O)C(C)=CC2=O)C=C(C(=O)OC)C1c1ccccc1OC` are 43.9 µM and greater than 82.1 µM.
On the same counts, the results for `Cc1nc2sccn2c1-c1nc2sccn2c1/C=C1/C(=O)Nc2ccccc21` are 19 µM and greater than 100 µM.
On the same counts, the results for `O=C(Nc1ncc(Cc2cccc(C(F)(F)F)c2)s1)c1ccc2c(c1)OCCO2` are 0.764 µM and greater than 100 µM.
Take `NNc1ncnc2nc[nH]c12`: the GI50 is 2.26 µM and the TGI was greater than 56.1 µM.
On to `CC[C@]1(O)C[C@H]2CN(CCc3c([nH]c4ccccc34)C(C(=O)OC)(c3cc4c(cc3OC)N(C)[C@H]3[C@@](O)(C(=O)OC)[C@H](OC(C)=O)[C@]5(CC)[C@@H]6C[C@@H]6CN6CC[C@]43[C@@H]65)C2)C1` (stereo not given in full), for which the GI50 is 0.00509 µM and the TGI amounted to 8.32 µM.
Regarding `CSc1nc2c(c(N(C)C)n1)C(O)n1c(nc3ccccc31)S2` (stereo not given), the TGI is greater than 100 µM.
For the compound `O=C1C(=Nc2ccc(Nc3ccccc3)cc2)Oc2ccccc21`, the TGI was determined as 18.4 µM.
Consider `OC(c1cc2cc(Cl)ccc2c2cc(C(F)(F)F)ccc12)C1CCCCN1` (stereo not given), for which the GI50 was 1.79 µM and the TGI worked out at 3.33 µM.
The compound `CCN(CC)c1ccc(/C=C/c2ccnc3ccccc23)cc1` had a TGI greater than 100 µM.
Same read-out and setting: under `Cc1nc2c(N)ncnc2o1` stands greater than 100 µM.
The same measure, in the same setting: under `O=C1NC(O)CCN1C1OC(CO)C(O)C1O` (stereo not given) stands greater than 250 µM; under `Cc1cc(C(=O)CSC(=S)SC(C)(C)C)ccc1Cl`, 43 µM; under `O=C1CSC2(CC(/C=C/c3cccs3)=NN2c2cccc(S(=O)(=O)O)c2)N1c1nc2ccccc2s1` (stereo not given), greater than 100 µM.
On the same count and under the same terms, the same measure for `Cc1cc(C)nc(NC(=S)Nc2ccc([N+](=O)[O-])cc2)c1`: greater than 100 µM.
`CCOC(=O)C(NC(=O)CC)(N1CCN(c2cc3c(cc2F)c(=O)c(C(=O)O)cn3C2CC2)CC1)C(F)(F)F` (stereo not given) yielded a TGI greater than 100 µM.
Take `C=C(C)C(C1C=C(CCC(C=O)=C(C)C)C(=O)O1)C1(OC)C=C(C)C(=O)O1` (stereo not given): the GI50 is greater than 100 µM and the TGI was greater than 100 µM.
The compound `COc1cc(C2c3cc4c(cc3[C@@H](Nc3ccccc3)C3COC(=O)[C@H]23)OCO4)cc(OC)c1O` (stereo not given in full) had a TGI greater than 100 µM.
Regarding `CNc1[nH]c(=S)nc2sc3c(c12)CCCC3`, the TGI was greater than 75 µM.
On the same count and under the same terms, under `Cc1c2c(c(C)n1-c1ccccc1)C(=O)N(CCN1CCN(c3cccc(C(F)(F)F)c3)CC1)C2=O` stands greater than 100 µM.
On the same count and under the same terms, under `Nc1nc(Cl)nc2c1ncn2C1CC(O)C(CO)O1` (stereo not given) stands greater than 100 µM.
`COC(=O)c1c2c(c(C)[n+]([O-])c1C)C(=O)C(NCc1ccc(Br)cc1)=CC2=O`: the GI50 is 2.01 µM and the TGI was 6.67 µM.
On the same counts, the results for `NC(N)=Nc1nc2ccccc2o1` are greater than 100 µM and greater than 100 µM.
For the compound `CN(C)CCN1CCC(Cc2ccccc2)CC1`, the GI50 was greater than 80 µM and the TGI was greater than 80 µM.
Take `CCCCCCCCCCCCCCCC(=O)N1CCCC1C(=O)NCC(=O)NC(Cc1ccccc1)C(=O)N1CCCC1C(=O)NC(CO)C(=O)NC(Cc1ccc(O)cc1)C(=O)NC(CCCCN)C(=O)NC(CC(C)C)C(=O)NC(CCCN=C(N)N)C(=O)N1CCCC1C(=O)NCC(N)=O` (stereo not given) (Palmitoyl-PGFPSYKLRPG-NH2; configuration not given here): the GI50 was 2.27 µM and the TGI stood at 20.4 µM.
`COc1cc2c3c(n(C)c(=O)c2cc1OC)-c1cc2c(cc1C3=O)OCO2`: the TGI is greater than 100 µM.
Regarding `CCOC(=O)/C(C(C)=O)=C(\OC(C)=O)c1ccncc1C(=O)O`, the TGI was greater than 100 µM.
Still for that read-out and setting: under `[N-]=[N+]=CC(=O)OC(CCl)CCl` stands greater than 100 µM; under `Nc1ncnc2c1ccn2C/C=C/CO`, greater than 100 µM.
Still for that read-out and setting: the same measure for `COc1cc(C=O)ccc1O`: greater than 100 µM; for `CC(NC(=O)C(C)(C)NC(=O)C(CC(=O)OCc1ccccc1)NC(=O)OCc1ccccc1)C(N)=O` (stereo not given) (Cbz-Asp(OBn)-[Aib]-Ala-NH2; configuration not given here): greater than 100 µM; for `CCCC(=O)OC[n+]1ccc2c(C)c3[nH]c4ccccc4c3c(C)c2c1`: 2.05 µM.
For `N#CC(I)CS(=O)(=O)c1ccccc1` (stereo not given), the GI50 was greater than 100 µM and the TGI was greater than 100 µM.
`COCOCCC#CCO` came in with a TGI greater than 100 µM.
On to `COc1cc2c(cc1OCCCCCN1CCN(c3ncnc4ccccc34)CC1)N=CC1CCCN1C2=O` (stereo not given), for which the GI50 was 0.117 µM and the TGI was 4.72 µM.
In turn, `CC1(C)CCc2c(ccc(C(=O)/C=C/c3ccc(O)cc3)c2O)O1` registered a TGI of 22.7 µM.
